B1: OR4K15 (parent)
chain: GUUAACGGUCAUAGGCCAUGGAAACUAGGAGCACCAUUUCGCUGCCAGUGAAGAAAUGAACAAAGAAAAUCUGGGCCAGGCAGGCAUCAAAAGAAAUAGUCUUGCGCUCAACCAGAAAGUCUGUAAUCAUUUUAAGGGUA

The source gives no read counts; variants with many changes may rest on few reads.

The data set covers variants of B1. Description: self-cleavage, relative activity (ratio to wild type); higher = more cleavage; in vitro, sequencing; the parent is a self-cleaving ribozyme.
Turning to U38C A56G A64G A117G A140G, the self-cleavage stood at 0.6.

Turning to U37C A68G A86U, the self-cleavage was determined as 1.35.

Consider U37C A82G A111G U127A, for which the self-cleavage is 0.04.

For U38C A55C A96G, the self-cleavage is 1.17.

In the case of A36U U102C A116G, the self-cleavage was 2.18.

With U37C A55G A86G U87C A90U U122C, the self-cleavage came out at 0.11.

U38C A78U U122A A126G: the self-cleavage turned out to be 0.1.

For U38A G44A U49A, the self-cleavage amounted to 1.97.

In the case of A36U A111U A117C, the self-cleavage was 0.08.

In the case of A36U A60G A95G A118G, the self-cleavage came out at 1.08.

U37C A59C A91G U139C: the self-cleavage is 0.59.

Consider U37C A55U A116G, for which the self-cleavage turned out to be 0.45.

For the variant U37C U43C G79C G138C, the self-cleavage worked out at 0.06.

As to A36U A51G U120C, the self-cleavage is 0.79.

Take U37G U43C A64U A94G U97C: the self-cleavage is 2.08.

In the case of U37C A78U A134G, the self-cleavage was 0.22.

With A36U A62U U124A, the self-cleavage is 0.32.

With U37C A110G A117G, the self-cleavage turned out to be 0.02.

With U37C A63G A90G, the self-cleavage was 2.07.

Take A36U A51G A116U: the self-cleavage was 0.25.

As to U38C A54G U131C, the self-cleavage came to 0.46.

As to U37C A62G A82G, the self-cleavage turned out to be 0.84.

Turning to U37C A47C A135G, the self-cleavage worked out at 0.96.

On to U37C A56G A64G, for which the self-cleavage was found to be 1.07.

As to U37G U131C A140G, the self-cleavage worked out at 1.19.

Take U37C U43C A67G U72A: the self-cleavage worked out at 0.47.

With U37C U43A A47G A78U U108G, the self-cleavage is 0.02.

On to U37C U38C U57C, for which the self-cleavage is 1.05.

In the case of U37C A60G A91G, the self-cleavage was 0.62.

As to U37C A86G A91G, the self-cleavage amounted to 0.13.

As to U38C A60U G104A, the self-cleavage worked out at 0.07.

Consider U38C A110G U127C, for which the self-cleavage stood at 0.08.

For the variant U37C A67G A82U, the self-cleavage was determined as 0.28.

As for U37C A118G U133C, the self-cleavage came out at 0.79.

With U37C A66U U100C, the self-cleavage worked out at 1.87.

As to A36U U43C U49C A91G A129G, the self-cleavage was 0.27.

In the case of U37A G41A U43A U131G, the self-cleavage is 1.66.

Take U37C U39C A63G U87C: the self-cleavage was 0.48.

Regarding U38C A69U A82G A86G A91G, the self-cleavage amounted to 0.03.

Turning to U38C A90G U131C, the self-cleavage is 0.95.

For the variant U37C U38A U57C A86C U87C A94G, the self-cleavage was 0.58.

In the case of U38C A63G A68G A78G A90G A110G U122A, the self-cleavage came out at 0.04.

In the case of U38C A117G A126G, the self-cleavage was found to be 1.47.

On to U38C A82U A135G, for which the self-cleavage turned out to be 0.2.

On to U38A C76U A114U, for which the self-cleavage was determined as 0.07.

For the variant U37C U38C G74A, the self-cleavage was found to be 0.32.

Turning to U37C A62C A67G A86U U87A A91G, the self-cleavage turned out to be 2.27.

Turning to U37C A90G U131C, the self-cleavage was 0.69.

With U37A A117C U120C U139A, the self-cleavage was 0.43.

Consider U38C A51G A52G, for which the self-cleavage amounted to 0.94.

In the case of U37C U39A A52G A92G A94G, the self-cleavage came to 0.32.

Turning to U38C A47G A63G A66G A96G G104A A110G, the self-cleavage amounted to 0.02.

In the case of U38A A94G U103A A114C U122C, the self-cleavage is 0.04.

With U37C U43A U70C A96U, the self-cleavage amounted to 2.32.

Turning to U38C A55G A67G U124C U132C, the self-cleavage came to 1.02.

Turning to U37C A55G A68G A94G A117G, the self-cleavage was determined as 1.47.

As for U37C A66C A116G, the self-cleavage was found to be 0.52.

Regarding U37C A47U A63G, the self-cleavage stood at 0.93.

Regarding U37C A59U U72C, the self-cleavage stood at 0.31.

Regarding U38C U39C A60G G99A, the self-cleavage was 0.26.

Turning to U37C G50U A60U A66G C88U A90G G99A U108A, the self-cleavage came out at 0.03.

Turning to U37C A51G A59G U102A, the self-cleavage was 1.54.

Take U38C A64U A78G: the self-cleavage turned out to be 0.6.

On to U38A U57C A69G, for which the self-cleavage amounted to 1.54.

For U37C A54G A66G A94G, the self-cleavage came to 1.07.

As to U37C A111U A118G G138A, the self-cleavage was determined as 0.13.

As for A36U U39C A110U U139C, the self-cleavage is 0.55.

For the variant U37C A51C A66G U87C, the self-cleavage worked out at 1.14.

In the case of A36U C46U A47U A52G A64G A114U, the self-cleavage worked out at 0.08.

As to U37C A116G A117G A126G, the self-cleavage amounted to 0.65.

Turning to U38C A52U A68G, the self-cleavage was 1.46.

For the variant U37C A55U A60U U102A, the self-cleavage came to 0.91.

For U38C A89G U108C, the self-cleavage is 0.

For the variant U38C A89G A92G A110G C128A, the self-cleavage worked out at 0.2.

With U37C U43A A52G A63G, the self-cleavage was 1.26.

On to U37C A47G U57C, for which the self-cleavage is 0.48.

With U37A A52G A82G U100A, the self-cleavage turned out to be 0.1.

U38C C71A C112G G115A U127C: the self-cleavage came to 0.01.

U38C A62G U70C U72C: the self-cleavage came to 0.32.

U37C A69G A78G A117G U131C: the self-cleavage was 0.16.

With A36U A62U A68U, the self-cleavage is 2.1.

With U37C A69G U87C U122G U130C, the self-cleavage amounted to 1.02.

Consider U38A A59G A67G A82G A125G A135G, for which the self-cleavage stood at 0.11.

On to U38C A78G U108C A116U, for which the self-cleavage is 0.

Source of the values: the RNAGym collection of RNA variant scans (doi:10.7554/elife.90254).
